Assay results as given in PubChem BioAssay (Tox21).
Some entries of the source have several records that differ or are many. The list is limited to them. Unless noted, calls follow the shape of the dose curve; as a rule, active = well fitted curve in the direction sought with a large enough effect in the repeat runs; inconclusive = weak or mixed curves; inactive = no such curve, though single readings can be large; an effect the other way counts as inactive or inconclusive. There may be further records. Values that stand side by side repeat one measurement (runs, samples, wells, individuals or studies). More than one record can exist for a structure, and the calls need not agree. Records carry a tag for their origin. Letters count within one entry. Signs of the kind (2×) say how often a value occurs here.

Legend:
[1] = target: Glucocorticoid receptor (Homo sapiens) (UniProt P04150); assay: qHTS assay to identify small molecule antagonists of the glucocorticoid receptor (GR) signaling pathway (AID 720692; active = well fitted inhibition curve with a large enough effect in the signal ratio in the repeat runs, not every such curve was filed as active; inconclusive = weak or mixed curves, or effect the other way; inactive = no such curve, though single readings can be large or run the other way; the % refers to the signal ratio)
[2] = target: Estrogen receptor (Homo sapiens) (UniProt P03372); assay: qHTS assay to identify small molecule agonists of the estrogen receptor alpha (ER-alpha) signaling pathway (AID 743075; calls by dose curve;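 also: HEK293 GripTite cells with ER-alpha and UAS-driven beta-lactamase reporter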); conditions: HEK293 ER-alpha-UAS-bla, beta-lactamase FRET ratio, 18 h
[3] = A CellTox Green Cytotoxicity Assay to monitor cytotoxicity in HEK293 cells - 24 hour (AID 1224875); also: nearly all actives have a fitted effect of over 45% in size
Method in brief: (§1)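 HEK293 cells premixed with CellTox Green dye were seeded at 600 cells/well and left 5 h at 37 C/5% CO2 before pin transfer of 23 nL compound in DMSO. Fluorescence from dye bound to dead-cell DNA was read during 40 h treatment.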

[4] = target: Cytochrome P450 2C9 (Homo sapiens) (UniProt P11712); assay: Cytochrome P450 Family 2 Subfamily C Member 9 (CYP2C9) small molecule antagonists: luciferase reporter qHTS assay (AID 1671198); conditions: P450-Glo CYP2C9 enzyme assay, luciferin luminescence; also: nearly all actives have a fitted effect of over 50% in size
Method in brief: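 CYP2C9 activity was measured with a P450-Glo proluciferin substrate. Enzyme–substrate mix was held with compound for 10 min at room temperature, then NADPH regeneration solution was added for 1 h at 37C. Luciferin product was read as luminescence.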

[5] = target: Androgen receptor (Homo sapiens) (UniProt P10275); assay: qHTS assay to identify small molecule agonists of the androgen receptor (AR) signaling pathway using the MDA cell line (AID 743040; also: nearly all actives have a fitted effect of over 20% in size)
[6] = A CellTox Green Cytotoxicity Assay to monitor cytotoxicity in HEK293 cells - 16 hour (AID 1224888); also: nearly all actives have a fitted effect of over 35% in size
Method in brief: as §1

[7] = qHTS assay for small molecules that induce genotoxicity in human embryonic kidney cells expressing luciferase-tagged ATAD5 - cell viability (AID 651634; calls by dose curve; also: nearly all actives have a fitted effect of over 25% in size)
Method in brief: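 HEK293T cells expressing luciferase-tagged ATAD5 were exposed to compound or DMSO for 15.5 hr at 37C, 5% CO2. Viability was then read as live-cell protease activity by CellTiter-Fluor fluorescence after 30 min at 37C.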

[8] = qHTS assay for small molecule disruptors of the mitochondrial membrane potential (AID 720635)
Method in brief: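 HepG2 cells (2,000/well) attached overnight at 37C, then took compound for 1 hr at 37C, 5% CO2. Mito-MPS dye was added for 30 min; fluorescence was read at 490/535 nm (monomers) and 540/590 nm (aggregates).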

[9] = qHTS assay to identify small molecule antagonists of the peroxisome proliferator-activated receptor gamma (PPARg) signaling pathway - cell viability counter screen (AID 743194); also: nearly all actives have a fitted effect of over 55% in size
Method in brief: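 PPARg-UAS-bla HEK293H cells were plated, rested 5 h at 37 C, then treated with compounds plus rosiglitazone (50 nM final) for 17 h at 37 C; viability was then read by CellTiter-Glo luminescence after 30 min at room temperature.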

[10] = qHTS assay to identify small molecule antagonists of the TGF-beta/Smad signaling pathway - cell viability counter screen (AID 1346824); also: nearly all actives have a fitted effect of over 50% in size
Method in brief: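 SBE-bla HEK 293T cells were plated overnight at 37 C, then given compounds in DMSO plus TGF-beta1 (added as 0.25 ng/mL solution) for 5 hr. After the bla read, CellTiter-Glo was added to the same wells and luminescence read after 30 min at room temperature.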

[11] = qHTS assay for identifying genotoxic compounds that show differential cytotoxicity against isogenic chicken DT40 cell lines with known DNA damage response pathways - wild type cell line (AID 743012); conditions: DT40 wild type chicken cells viability, CellTiter-Glo, 40 h; also: nearly all actives have a fitted effect of over 60% in size
Method in brief: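 Parental DNA repair-proficient DT40 cells, 300 per well, were pre-incubated ~0.5 h at 37 C/5% CO2, pin-dosed with compounds in DMSO, then incubated 40 h. Viability was read as CellTiter-Glo luminescence after 30 min at room temperature.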

[12] = qHTS assay to identify small molecule antagonists of the androgen receptor (AR) signaling pathway using the MDA cell line - cell viability counter screen (AID 743041; also: nearly all actives have a fitted effect of over 45% in size)
Method in brief: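 Viability counter screen run alongside the AR antagonist reporter: cells seeded 5 h before compound, R1881 added, 16 h incubation at 37C without CO2, fluorescent CellTiter-Fluor signal quantified.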

[13] = qHTS assay to identify small molecule antagonists of the estrogen receptor alpha (ER-alpha) signaling pathway using the BG1 cell line (AID 743080; calls by dose curve;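 also: BG1 cells stimulated with 17beta-estradiol alongside compound; nearly all actives have a fitted effect of over 25% in size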); conditions: BG1Luc4E2 ERE-luciferase antagonist mode, luminescence
Method in brief: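 Luminescence from a 4×ERE-luciferase reporter in BG1-Luc-4E2 cells served as read-out. Cells, pre-cultured 5 days in stripped-serum phenol-red-free medium, were exposed to compound with 17beta-estradiol co-stimulation for 21.5 h at 37 C.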

[14] = qHTS assay to identify small molecule antagonists of the thyroid receptor (TR) signaling pathway (AID 743065); also: nearly all actives have a fitted effect of over 55% in size
Method in brief: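 GH3.TRE-Luc rat pituitary cells carrying two TR response elements driving luciferase were plated for 4 h, given compound plus 1 nM T3 (final), and incubated 23.5 h at 37 C. ONE-Glo luminescence measured reporter inhibition; CellTiter-Fluor fluorescence tracked cytotoxicity.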

[15] = qHTS assay to identify small molecule antagonists of the estrogen receptor alpha (ER-alpha) signaling pathway using the BG1 cell line in the presence of 0.1 nM 17-beta-estradiol - cell viability counter screen (AID 1259241); also: nearly all actives have a fitted effect of over 40% in size
Method in brief: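 In this screen, hormone-deprived VM7Luc4E2 cells were seeded at 4,000 per well, dosed with compound and 0.1 nM estradiol final, and incubated 22 hr at 37C and 5% CO2; fluorogenic live-cell protease signal reported viability.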
Potency is read from the fitted curve at half-maximal effect.

UniProt P11712, sequence (P11712 whole entry, looked up): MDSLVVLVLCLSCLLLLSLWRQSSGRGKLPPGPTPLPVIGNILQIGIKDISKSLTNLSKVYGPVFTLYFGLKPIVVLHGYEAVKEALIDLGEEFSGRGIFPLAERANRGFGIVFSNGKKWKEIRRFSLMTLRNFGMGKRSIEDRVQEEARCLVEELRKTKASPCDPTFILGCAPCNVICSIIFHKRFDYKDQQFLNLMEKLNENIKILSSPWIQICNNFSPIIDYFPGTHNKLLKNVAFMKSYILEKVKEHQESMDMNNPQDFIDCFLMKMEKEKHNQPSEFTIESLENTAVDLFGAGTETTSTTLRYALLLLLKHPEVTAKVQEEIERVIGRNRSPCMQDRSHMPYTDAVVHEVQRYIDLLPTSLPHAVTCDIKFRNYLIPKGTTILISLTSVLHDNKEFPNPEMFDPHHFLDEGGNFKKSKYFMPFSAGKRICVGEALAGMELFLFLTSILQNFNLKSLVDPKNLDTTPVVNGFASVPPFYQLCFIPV
UniProt P03372, sequence (P03372 whole entry, looked up): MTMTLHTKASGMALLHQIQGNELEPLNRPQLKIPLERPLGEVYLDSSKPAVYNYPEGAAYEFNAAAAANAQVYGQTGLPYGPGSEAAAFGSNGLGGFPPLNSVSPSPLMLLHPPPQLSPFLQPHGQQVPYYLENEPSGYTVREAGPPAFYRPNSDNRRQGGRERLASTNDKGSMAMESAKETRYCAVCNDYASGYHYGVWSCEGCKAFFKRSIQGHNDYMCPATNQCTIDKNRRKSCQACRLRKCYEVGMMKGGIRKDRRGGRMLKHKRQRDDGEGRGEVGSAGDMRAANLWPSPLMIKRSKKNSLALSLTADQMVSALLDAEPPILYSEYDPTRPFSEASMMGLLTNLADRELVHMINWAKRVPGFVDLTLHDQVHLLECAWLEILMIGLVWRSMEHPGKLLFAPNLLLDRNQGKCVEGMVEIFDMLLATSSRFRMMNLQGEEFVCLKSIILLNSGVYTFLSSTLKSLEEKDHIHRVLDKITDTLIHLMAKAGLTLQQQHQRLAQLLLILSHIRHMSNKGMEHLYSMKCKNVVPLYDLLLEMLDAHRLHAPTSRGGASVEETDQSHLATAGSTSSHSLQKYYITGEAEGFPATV
UniProt P04150, sequence (P04150 whole entry, looked up): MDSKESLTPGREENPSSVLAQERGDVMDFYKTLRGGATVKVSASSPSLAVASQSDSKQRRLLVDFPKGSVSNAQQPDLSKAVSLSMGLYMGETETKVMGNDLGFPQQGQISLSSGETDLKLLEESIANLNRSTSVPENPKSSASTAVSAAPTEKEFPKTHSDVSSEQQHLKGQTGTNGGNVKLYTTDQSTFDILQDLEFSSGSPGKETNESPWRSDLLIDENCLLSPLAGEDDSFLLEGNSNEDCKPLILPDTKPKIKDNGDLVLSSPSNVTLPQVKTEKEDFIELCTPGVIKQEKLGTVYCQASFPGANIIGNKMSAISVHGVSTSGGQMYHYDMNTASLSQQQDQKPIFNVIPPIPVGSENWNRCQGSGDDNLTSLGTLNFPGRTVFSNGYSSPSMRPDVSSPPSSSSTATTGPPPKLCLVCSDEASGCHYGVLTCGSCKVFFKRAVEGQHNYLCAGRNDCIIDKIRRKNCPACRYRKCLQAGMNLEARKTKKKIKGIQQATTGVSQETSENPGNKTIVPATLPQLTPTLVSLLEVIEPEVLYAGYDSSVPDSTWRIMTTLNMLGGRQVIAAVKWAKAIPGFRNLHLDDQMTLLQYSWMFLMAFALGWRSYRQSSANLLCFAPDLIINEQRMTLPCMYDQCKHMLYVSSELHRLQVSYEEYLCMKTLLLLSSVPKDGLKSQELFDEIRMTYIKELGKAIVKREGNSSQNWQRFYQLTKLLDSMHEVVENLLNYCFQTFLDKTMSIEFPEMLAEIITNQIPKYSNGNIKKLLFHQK
UniProt P10275, sequence (P10275 whole entry, looked up): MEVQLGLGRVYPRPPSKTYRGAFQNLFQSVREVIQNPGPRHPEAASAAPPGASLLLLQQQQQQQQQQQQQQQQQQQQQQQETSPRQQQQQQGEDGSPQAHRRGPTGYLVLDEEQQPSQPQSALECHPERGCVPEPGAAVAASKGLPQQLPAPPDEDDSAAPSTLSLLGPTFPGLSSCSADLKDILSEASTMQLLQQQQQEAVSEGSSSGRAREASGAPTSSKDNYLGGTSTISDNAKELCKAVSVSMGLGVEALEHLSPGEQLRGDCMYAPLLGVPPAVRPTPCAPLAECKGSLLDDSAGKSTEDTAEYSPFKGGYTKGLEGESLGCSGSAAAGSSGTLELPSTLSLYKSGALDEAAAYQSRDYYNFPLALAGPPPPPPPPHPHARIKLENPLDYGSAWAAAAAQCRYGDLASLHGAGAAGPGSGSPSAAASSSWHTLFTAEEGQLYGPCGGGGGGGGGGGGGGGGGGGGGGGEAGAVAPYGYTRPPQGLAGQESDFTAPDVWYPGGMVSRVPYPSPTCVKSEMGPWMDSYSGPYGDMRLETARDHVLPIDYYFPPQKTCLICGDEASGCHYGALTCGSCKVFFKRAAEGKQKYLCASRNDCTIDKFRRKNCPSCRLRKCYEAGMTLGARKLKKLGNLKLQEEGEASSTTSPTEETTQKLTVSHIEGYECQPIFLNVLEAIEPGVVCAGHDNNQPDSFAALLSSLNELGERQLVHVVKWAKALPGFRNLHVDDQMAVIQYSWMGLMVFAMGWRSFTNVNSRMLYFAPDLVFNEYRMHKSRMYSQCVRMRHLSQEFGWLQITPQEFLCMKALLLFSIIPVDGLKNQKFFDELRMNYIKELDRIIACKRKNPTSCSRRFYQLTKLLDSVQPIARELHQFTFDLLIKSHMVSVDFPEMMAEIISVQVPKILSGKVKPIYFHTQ

In the case of `C#C[C@]1(O)CC[C@H]2[C@@H]3CCC4=CC(=O)CC[C@@H]4[C@H]3CC[C@@]21CC`, the Potency [1] is reported as “active: 601 nM, 219 nM, 490 nM and inactive [separate samples]”, the Potency [2] is reported as “active: 1.51 µM [inconclusive] and active: 438 nM [inconclusive] and active: 1.95 µM [inconclusive] and active: 2.19 µM [inconclusive] [separate samples]” and the Potency [3] is reported as “active: 49.1 µM and inactive (3×) [separate samples]”. The Potency [4] was “active: 2.25, 7.1, 2.24, 3.09 µM [separate samples]”.

For `COc1cc(O)c(C(=O)c2ccccc2)cc1S(=O)(=O)O`, the Potency [5] was “active: 29.8 µM [sample A] and inactive [sample B] and inactive [sample C]”.

For `CC(=O)CCC(C)C`, the Potency [3] was “inactive [sample A] and active: 24.5 µM [sample B]” and the Potency [6] was “inactive [sample A] and active: 24.5 µM [sample B]”.

For `Cc1cnc(NC(=O)C2=C(O)c3ccccc3S(=O)(=O)N2C)s1`, the Potency [7] was “inactive [sample A] and active: 61.1 µM [sample B]” and the Potency [8] was “active: 10.6 µM, 9.71 µM, 19.3 µM and inactive [separate samples]”.

With `O=c1c(-c2ccc(O)cc2)coc2cc(O)cc(O)c12` the Potency [7] was “inactive [sample A] and active: 53.5 µM [sample B] and inactive [sample C]”.

In the case of `CC(C)(C)CC(C)(C)c1ccc(O)c(-n2nc3ccccc3n2)c1`, the Potency [9] is reported as “active: 44.3 µM [sample A] and inactive [sample B]” and the Potency [10] is reported as “active: 35.2 µM [sample A] and inactive [sample B] and inactive [sample C]”.

With `NC(N)=NC(N)=NCCc1ccccc1` the Potency [11] was “active: 11.4, 7.5, 38.3, 48.6 µM [separate samples]”, the Potency [12] was “inactive [sample A] and active: 60.8 µM [sample B] and active: 54.5 µM [sample C]” and the Potency [13] was “active: 5.07, 9.44, 21.6, 24.3 µM [separate samples]”.

In the case of `CC1=C(/C=C/C(C)=C/C=C/C(C)=C/C(=O)O)C(C)(C)CCC1`, the Potency [14] is reported as “inactive [sample A] and active: 61.2 µM [sample B] and active: 61.1 µM [sample C]”.

For `NC(=O)N/N=C/c1ccc([N+](=O)[O-])o1`, the Potency [7] was “inactive [sample A] and active: 19.3 µM [sample B]” and the Potency [15] was “inactive [sample A] and active: 54.5 µM [sample B]”.
